Assay results: a collection of fitness landscapes (doi:10.1016/j.celrep.2020.107928)
In all, about 81,000 sequences were measured (“one-hybrid fitness for binding NBS DNA”: median about -0.1, highest 2% from about 0.36 on). The list shows a part of the results.

B1: Caulobacter ParB omega fusion; a variant is named by its letters at X, in order, B8GW30 (parent)
chain: MESVVVGEPGMSEGRRGLGRGLSALLGEVDAAPAQAPGEQLGGSREAPIEILQRNPDQPRRTFREEDLEDLSNSIREKGVLQPILVRPSPDTAGEYQIVAGERAWRAAQRAGLKTVPIMVRELDDLAVLEIGIIENVQRADLNVLEEALSYKVLMEKFERTQENIAQTIGKSXSHVANXMRLLXLPDEVQSYLVSGELTAXHARAIAAAADPVALAKQIIEGGLSVRETEALARKAPNLSAGKSKGGRPPRVKDTDTQALESDLSSVLGLDVSIDHRGSTGTLTITYATLEQLDDLCNRLTRGI

Variants of: B1
Test: one-hybrid fitness for binding NBS DNA (the Noc-binding site; scaled: cognate 1, non-cognate 0); higher = stronger binding
Details: with NBS DNA site
Outline: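 Values were rescaled so that cognate is 1 and non-cognate is 0. Each is a fitness, the log change in a variant's read ratio to wild type from Illumina reads of plasmids before and after selection, with three replicate libraries pooled and variants under 10 reads dropped. Selection of the Caulobacter ParB libraries, four specificity codons randomised, used E. coli USO with a HIS3 reporter, site 19 bp from the promoter, on M9-minus-histidine with 0.1 mM IPTG and 5 mM 3-AT for 48 hours at 37°C.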

Variant | one-hybrid fitness for binding NBS DNA
RIWL | ≤ 0.2
RSNN | ≤ 0.2
SETY | ≤ 0.2
RWPY | ≤ 0.2
YTKH | ≤ 0.2
ECAR | ≤ 0.2
FGDT | ≤ 0.2
RNAN | ≤ 0.2
LYNF | ≤ 0.2
QIGN | ≤ 0.2
TQTH | ≤ 0.2
ILNQ | ≤ 0.2
EDWY | ≤ 0.2
VREC | ≤ 0.2
DKPR | ≤ 0.2
VWHR | ≤ 0.2
HQPW | ≤ 0.2
NMVW | ≤ 0.2
TYTL | ≤ 0.2
GRRC | ≤ 0.2
HCYM | ≤ 0.2
VWSQ | ≤ 0.2
PYAW | ≤ 0.2
RYLC | ≤ 0.2
AMTN | ≤ 0.2

Variant | one-hybrid fitness for binding NBS DNA
LPRW | ≤ 0.2
DFAS | ≤ 0.2
YNVG | ≤ 0.2
TSML | ≤ 0.2
PTES | ≤ 0.2
RIFE | ≤ 0.2
RNTR | 0.299
TYLD | ≤ 0.2
QAGC | ≤ 0.2
SLYR | ≤ 0.2
HRCL | ≤ 0.2
FAFL | 0.451
QKLR | 0.491
MATA | ≤ 0.2
SLVS | ≤ 0.2
DAEE | ≤ 0.2
WGAY | ≤ 0.2
ADPS | ≤ 0.2
LIRA | ≤ 0.2
LGER | ≤ 0.2
DALG | ≤ 0.2
IENC | ≤ 0.2
YSQG | ≤ 0.2
RRSH | 0.439
KLEH | ≤ 0.2

Variant | one-hybrid fitness for binding NBS DNA
KPHA | ≤ 0.2
SCRF | ≤ 0.2
QDAL | ≤ 0.2
TGLH | ≤ 0.2
MELL | ≤ 0.2
WWVG | ≤ 0.2
HFHC | ≤ 0.2
VYWT | ≤ 0.2
DSMG | ≤ 0.2
ESRW | ≤ 0.2
MWGS | ≤ 0.2
CRVT | ≤ 0.2
TPHC | ≤ 0.2
PHPM | ≤ 0.2
NSLS | ≤ 0.2
VWMG | ≤ 0.2
YIKV | ≤ 0.2
PVLG | ≤ 0.2
GVPL | ≤ 0.2
EWKG | ≤ 0.2
QEIT | ≤ 0.2
CLPG | ≤ 0.2
LYAL | ≤ 0.2
LSWM | ≤ 0.2
YVTI | ≤ 0.2

Variant | one-hybrid fitness for binding NBS DNA
RQTG | ≤ 0.2
QFWR | ≤ 0.2
HSDF | ≤ 0.2
VQEG | ≤ 0.2
GCRN | ≤ 0.2
LHMS | ≤ 0.2
GNHR | ≤ 0.2
CSTQ | ≤ 0.2
SING | ≤ 0.2
PLHV | ≤ 0.2
QSGY | ≤ 0.2
EMFA | ≤ 0.2
SGVV | ≤ 0.2
VASW | ≤ 0.2
CQPE | ≤ 0.2
TMQS | ≤ 0.2
SYNT | ≤ 0.2
TKSM | ≤ 0.2
DWVF | ≤ 0.2
QDRN | ≤ 0.2
DTRE | ≤ 0.2
CVRT | ≤ 0.2
TWIS | ≤ 0.2
QCNA | 0.369
NTNS | ≤ 0.2

Variant | one-hybrid fitness for binding NBS DNA
PAGD | ≤ 0.2
RSQR | 0.44
ASDA | ≤ 0.2
TPES | ≤ 0.2
WMPR | ≤ 0.2
NGHR | ≤ 0.2
DIPF | ≤ 0.2
LGEC | ≤ 0.2
SQGG | ≤ 0.2
TICS | ≤ 0.2
CKLS | ≤ 0.2
GQPR | ≤ 0.2
PSNP | ≤ 0.2
QCMW | ≤ 0.2
IGMR | ≤ 0.2
RRYI | ≤ 0.2
VEPM | ≤ 0.2
QYYF | ≤ 0.2
TYRW | ≤ 0.2
PYEH | ≤ 0.2
SWST | ≤ 0.2
VNGG | ≤ 0.2
PPPA | ≤ 0.2
KINE | ≤ 0.2
FNPC | ≤ 0.2

Variant | one-hybrid fitness for binding NBS DNA
KPSA | ≤ 0.2
LAIR | ≤ 0.2
DKLS | ≤ 0.2
NWVC | ≤ 0.2
GAPD | ≤ 0.2
MPHV | ≤ 0.2
NPCP | ≤ 0.2
IAAQ | ≤ 0.2
MALF | ≤ 0.2
GVWT | ≤ 0.2
SPPI | ≤ 0.2
AQRT | ≤ 0.2
FMTY | ≤ 0.2
LEHR | ≤ 0.2
HPTK | ≤ 0.2
TNKY | ≤ 0.2
LCQC | ≤ 0.2
RKKM | 0.269
TIGG | ≤ 0.2
PRGK | ≤ 0.2
FYRR | ≤ 0.2
CRLA | ≤ 0.2
HKYA | ≤ 0.2
LDMV | ≤ 0.2
MRPS | ≤ 0.2

Variant | one-hybrid fitness for binding NBS DNA
QLMN | ≤ 0.2
IQSK | ≤ 0.2
WKPQ | ≤ 0.2
SEQM | ≤ 0.2
RTES | 0.219
VMFS | ≤ 0.2
LPPK | ≤ 0.2
HNIC | ≤ 0.2
SNGR | ≤ 0.2
ISKY | ≤ 0.2
QALV | ≤ 0.2
VPWL | ≤ 0.2
RYLD | ≤ 0.2
NGTE | ≤ 0.2
KHYT | ≤ 0.2
TPSR | ≤ 0.2
SNYH | ≤ 0.2
QQKC | 0.449
RMPD | ≤ 0.2
QNEG | ≤ 0.2
SELR | ≤ 0.2
LRFR | ≤ 0.2
SNYR | ≤ 0.2
DSSE | ≤ 0.2
GPNG | ≤ 0.2

Variant | one-hybrid fitness for binding NBS DNA
QIKS | 0.497
ENLL | ≤ 0.2
PNLV | ≤ 0.2
QGAN | ≤ 0.2
CCAI | ≤ 0.2
CVMR | ≤ 0.2
YASE | ≤ 0.2
YSAS | ≤ 0.2
VHKC | ≤ 0.2
KLHW | ≤ 0.2
IGFV | ≤ 0.2
HPKY | ≤ 0.2
PYPN | ≤ 0.2
HKNL | ≤ 0.2
QLQL | ≤ 0.2
LAYL | ≤ 0.2
LVSC | ≤ 0.2
QTCL | ≤ 0.2
KRCK | ≤ 0.2
CTIS | ≤ 0.2
